B1: Caulobacter ParB omega fusion; a variant is named by its letters at X, in order, B8GW30 (parent)
chain: MESVVVGEPGMSEGRRGLGRGLSALLGEVDAAPAQAPGEQLGGSREAPIEILQRNPDQPRRTFREEDLEDLSNSIREKGVLQPILVRPSPDTAGEYQIVAGERAWRAAQRAGLKTVPIMVRELDDLAVLEIGIIENVQRADLNVLEEALSYKVLMEKFERTQENIAQTIGKSXSHVANXMRLLXLPDEVQSYLVSGELTAXHARAIAAAADPVALAKQIIEGGLSVRETEALARKAPNLSAGKSKGGRPPRVKDTDTQALESDLSSVLGLDVSIDHRGSTGTLTITYATLEQLDDLCNRLTRGI

In all, about 81,000 sequences were measured (“one-hybrid fitness for binding parS DNA”: median about -0.17, highest 2% from about 0.51 on). The list shows a part of the results. A value given as a limit tells only on which side of the number the result lay.

In the assay the parent is B1. As to the kind of experiment: one-hybrid fitness for binding parS DNA (scaled: cognate 1, non-cognate 0); higher = stronger binding. The following applies: with parS DNA site. An outline of the steps:
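In E. coli USO, a HIS3 reporter with its site placed 19 bp from the promoter was used to select Caulobacter ParB variants randomised at four specificity codons. Growth lasted 48 hours at 37°C on histidine-free M9 containing 0.1 mM IPTG and 5 mM 3-AT. Fitness was taken as the log change in variant-to-wild-type read ratio from Illumina sequencing of pre- and post-selection plasmids, rescaled between the non-cognate and cognate sites.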
For AMFS, the “one-hybrid fitness for binding parS DNA” value is at most 0.2.
For GEND the value was at most 0.2; for HHDA, at most 0.2; for RVLA, 0.565.
As to DVAF, the “one-hybrid fitness for binding parS DNA” value was at most 0.2.
Take LQEQ: the “one-hybrid fitness for binding parS DNA” value was at most 0.2.
Turning to KRFT, the “one-hybrid fitness for binding parS DNA” value is at most 0.2.
As for CARV, the “one-hybrid fitness for binding parS DNA” value is at most 0.2.
Regarding ICSG, the “one-hybrid fitness for binding parS DNA” value is at most 0.2.
HQMY: the “one-hybrid fitness for binding parS DNA” value was at most 0.2.
For QDVV the value was at most 0.2.
PPDG: the “one-hybrid fitness for binding parS DNA” value is at most 0.2.
YTHG: the “one-hybrid fitness for binding parS DNA” value is at most 0.2.
For TTQI the value was at most 0.2.
As for YAHR, the figure is at most 0.2; as for GKMV, at most 0.2.
As for QNGR, the figure is at most 0.2; as for CILS, at most 0.2; as for GWPT, at most 0.2.
Take KPNH: the “one-hybrid fitness for binding parS DNA” value is at most 0.2.
For RILL the value was at most 0.2; for IRKM, at most 0.2.
As for GALS, the figure is at most 0.2; as for RNKY, 0.543; as for AWTS, at most 0.2.
As for TYEC, the figure is at most 0.2; as for HYHD, at most 0.2; as for LAGA, at most 0.2.
Take ERLS: the “one-hybrid fitness for binding parS DNA” value is at most 0.2.
Consider NPMC, for which the “one-hybrid fitness for binding parS DNA” value is at most 0.2.
As for MPMR, the figure is at most 0.2.
For VRGF the value was at most 0.2.
In the case of AIKL, the “one-hybrid fitness for binding parS DNA” value is at most 0.2.
FPNF: the “one-hybrid fitness for binding parS DNA” value is at most 0.2.
For the variant HFSV, the “one-hybrid fitness for binding parS DNA” value is at most 0.2.
For CVTN the value was at most 0.2; for RTVV, at most 0.2; for HSSY, at most 0.2.
For NFCN, the “one-hybrid fitness for binding parS DNA” value was at most 0.2.
As for RRNH, the “one-hybrid fitness for binding parS DNA” value came out at 0.256.
Consider HIPS, for which the “one-hybrid fitness for binding parS DNA” value is at most 0.2.
For NLNK the value was at most 0.2; for FVRC, at most 0.2.
As for NCNS, the “one-hybrid fitness for binding parS DNA” value is at most 0.2.
For HYHY the value was at most 0.2.
In the case of PWRD, the “one-hybrid fitness for binding parS DNA” value was at most 0.2.
On to PRSW, for which the “one-hybrid fitness for binding parS DNA” value is at most 0.2.
Take IKYM: the “one-hybrid fitness for binding parS DNA” value is at most 0.2.
Regarding VVQG, the “one-hybrid fitness for binding parS DNA” value was at most 0.2.
For LDGF the value was at most 0.2; for DACS, at most 0.2; for KDMV, at most 0.2.
For APQG the value was at most 0.2; for SYTR, at most 0.2.
For the variant FLKT, the “one-hybrid fitness for binding parS DNA” value is at most 0.2.
As for TRAG, the figure is at most 0.2.
With GETA, the “one-hybrid fitness for binding parS DNA” value was at most 0.2.
As for PVTL, the figure is at most 0.2; as for CIYT, at most 0.2.
With ITLT, the “one-hybrid fitness for binding parS DNA” value is at most 0.2.
As for ALAC, the figure is at most 0.2.
As for SKNS, the figure is at most 0.2; as for YVVS, at most 0.2.
As for DRPI, the figure is at most 0.2.
Take TSSE: the “one-hybrid fitness for binding parS DNA” value is at most 0.2.
For AAPT the value was at most 0.2.
With KFVS, the “one-hybrid fitness for binding parS DNA” value is at most 0.2.
As for ITNL, the figure is at most 0.2; as for GTMT, at most 0.2; as for SFAY, at most 0.2.
For QLNC the value was at most 0.2.
In the case of YTKD, the “one-hybrid fitness for binding parS DNA” value was at most 0.2.
As for AFFK, the “one-hybrid fitness for binding parS DNA” value is at most 0.2.
As for AQPV, the figure is at most 0.2.
RKRQ: the “one-hybrid fitness for binding parS DNA” value is at most 0.2.
As for RSMI, the figure is at most 0.2; as for LTIF, at most 0.2; as for MRSV, at most 0.2.
With QAEW, the “one-hybrid fitness for binding parS DNA” value was at most 0.2.
With TQVQ, the “one-hybrid fitness for binding parS DNA” value was at most 0.2.
Regarding VVAV, the “one-hybrid fitness for binding parS DNA” value is at most 0.2.
Regarding TCKR, the “one-hybrid fitness for binding parS DNA” value was at most 0.2.
PWQC: the “one-hybrid fitness for binding parS DNA” value is at most 0.2.
In the case of KLAR, the “one-hybrid fitness for binding parS DNA” value was at most 0.2.
For KAYA the value was at most 0.2; for GANY, at most 0.2.
In the case of GHNS, the “one-hybrid fitness for binding parS DNA” value was at most 0.2.
As for KSGN, the “one-hybrid fitness for binding parS DNA” value was at most 0.2.
Consider YYGT, for which the “one-hybrid fitness for binding parS DNA” value is at most 0.2.
Turning to TGCC, the “one-hybrid fitness for binding parS DNA” value is at most 0.2.
As for VEFT, the “one-hybrid fitness for binding parS DNA” value was at most 0.2.
For ESFI the value was at most 0.2; for CNLV, at most 0.2.
For IYPC the value was at most 0.2; for TIKT, at most 0.2; for LRNM, at most 0.2.
As for HSTL, the figure is at most 0.2; as for TGTL, at most 0.2.
QCRQ: the “one-hybrid fitness for binding parS DNA” value was at most 0.2.
As for IRND, the figure is at most 0.2; as for KAGA, at most 0.2; as for MVET, at most 0.2.
For IPGG the value was at most 0.2.
For RNEW the value was at most 0.2; for PVMI, at most 0.2.
For the variant LFDQ, the “one-hybrid fitness for binding parS DNA” value was at most 0.2.
As for HMMS, the figure is at most 0.2.
As for ALIS, the figure is at most 0.2; as for STEK, at most 0.2; as for LGDK, at most 0.2.
For NAWC the value was at most 0.2.
For AIRH, the “one-hybrid fitness for binding parS DNA” value amounted to 0.22.
Turning to RIHQ, the “one-hybrid fitness for binding parS DNA” value is at most 0.2.
Consider TPNW, for which the “one-hybrid fitness for binding parS DNA” value was at most 0.2.
For the variant QVVP, the “one-hybrid fitness for binding parS DNA” value is at most 0.2.
As for NDCG, the figure is at most 0.2.
For DESR the value was at most 0.2.
For RTDT the value was 0.802; for QSQC, at most 0.2.
REMV: the “one-hybrid fitness for binding parS DNA” value is at most 0.2.
For KSSQ the value was at most 0.2.
Regarding RFNN, the “one-hybrid fitness for binding parS DNA” value was 0.411.
In the case of VAPR, the “one-hybrid fitness for binding parS DNA” value was at most 0.2.
With LQVK, the “one-hybrid fitness for binding parS DNA” value was at most 0.2.
On to YKRM, for which the “one-hybrid fitness for binding parS DNA” value is at most 0.2.
For GSGT the value was at most 0.2.
As for HAGA, the figure is at most 0.2; as for DWTS, at most 0.2; as for WYGC, 0.476.
As to CPPP, the “one-hybrid fitness for binding parS DNA” value is at most 0.2.
For GSIC the value was at most 0.2; for IEPD, at most 0.2.
For RFSV the value was at most 0.2; for WPHS, at most 0.2; for KPDS, at most 0.2.
As for PARK, the figure is at most 0.2; as for QKGG, at most 0.2; as for PVGK, at most 0.2.
For the variant VKTQ, the “one-hybrid fitness for binding parS DNA” value was at most 0.2.
As for QHRI, the figure is at most 0.2; as for DRET, at most 0.2; as for RTSA, 0.591.
For QALM the value was at most 0.2.
Turning to HETR, the “one-hybrid fitness for binding parS DNA” value is at most 0.2.
For PFTL, the “one-hybrid fitness for binding parS DNA” value was at most 0.2.
As for LRSN, the figure is at most 0.2.
For IHTA the value was at most 0.2.
As for FEMV, the figure is at most 0.2; as for NPRA, at most 0.2.
As for RTML, the “one-hybrid fitness for binding parS DNA” value was at most 0.2.
With GTNT, the “one-hybrid fitness for binding parS DNA” value was at most 0.2.
Regarding NKIR, the “one-hybrid fitness for binding parS DNA” value is at most 0.2.
Consider NHVY, for which the “one-hybrid fitness for binding parS DNA” value is at most 0.2.

(Values after a collection of fitness landscapes (doi:10.1016/j.celrep.2020.107928).)
